# Data published in the supplement of paper PMC11741623.
# This is one part of the list. Interaction screen of human proteins with wild-type SARS-CoV-2 proteins by split-DHFR complementation in yeast, 1 µg/mL methotrexate. Value = fitness of the pair (three or more lineages) minus that of the viral protein without a human partner, on a scale set by negative (0) and fused positive (1) controls, mean of up to three cultures; higher = more likely to interact. Active = false discovery rate below 0.05 (one-sided t-test) in at least one culture. Nearly all pairs are not hits, and differences among them are mostly noise (correlation between cultures about 0.3); most hits were seen in one culture only. Human sequences are the Swiss-Prot entries looked up by gene name; the clone may be another isoform. NSP2 values were corrected by the authors for a growth advantage. Listed are human proteins with a hit and a random twelfth of the others.
# Tested on: SARS-CoV-2 ORF9Bwu (the 73-codon ORF)
# Assay: yeast fitness gain over the viral ORF with no human partner (scaled fitness); higher = more likely to interact
# Procedure: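 Split mouse DHFR complementation in pooled diploid yeast: human ORFeome clones carry one fragment and viral ORFs the other; barcoded lineages compete in 1 µg/mL methotrexate and fitness is read by barcode sequencing in up to three cultures.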
row,Substance,yeast fitness gain
1,"HSPB7, Q9UBY9",inactive: -0.113
2,"CBWD1, Q9BRT8",inactive: 0.0117
3,"IDH3B, O43837",inactive: -0.0575
4,"PRR14L, Q5THK1",inactive: 0.0886
5,"BNIP3L, O60238",inactive: -0.0105
6,"SOX14, O95416",inactive: 0.000334
7,"BHLHA15, Q7RTS1",inactive: -0.105
8,"FAM136A, Q96C01",inactive: 0.0272
9,"KLF6, Q99612",inactive: 0.0198
10,"TIMM50, Q3ZCQ8",inactive: 0.0355
11,"CABP5, Q9NP86",inactive: 0.0597
12,"HEATR1, Q9H583",inactive: 0.0378
13,"POLD2, P49005",inactive: 0.0484
14,"TLX3, O43711",inactive: 0.0228
15,"NDRG4, Q9ULP0",inactive: 0.0196
16,"ZNF673, Q5JUW0",inactive: -0.0355
17,"FAM19A3, Q7Z5A8",inactive: -0.0136
18,"MAGEA10, P43363",inactive: 0.00207
19,"IHH, Q14623",inactive: 0.00346
20,"ZNF785, A8K8V0",inactive: -0.024
21,"ZNF517, Q6ZMY9",inactive: 0.0182
